# Measurements reported in publication PMC4336329 (PLoS ONE, 2015).
# In all, about 310,000 compounds went through this assay and about 2,200 (0.71%) showed an effect of 50% or more. Effects have a minus sign here. Some of the results follow.
# Target: human ether-à-go-go-related gene (hERG) potassium channel (human, UniProt Q12809)
# Test: primary screen, population patch clamp on CHO cells stably expressing hERG
# Sequence of human ether-à-go-go-related gene (hERG) potassium channel (Q12809 whole entry, looked up): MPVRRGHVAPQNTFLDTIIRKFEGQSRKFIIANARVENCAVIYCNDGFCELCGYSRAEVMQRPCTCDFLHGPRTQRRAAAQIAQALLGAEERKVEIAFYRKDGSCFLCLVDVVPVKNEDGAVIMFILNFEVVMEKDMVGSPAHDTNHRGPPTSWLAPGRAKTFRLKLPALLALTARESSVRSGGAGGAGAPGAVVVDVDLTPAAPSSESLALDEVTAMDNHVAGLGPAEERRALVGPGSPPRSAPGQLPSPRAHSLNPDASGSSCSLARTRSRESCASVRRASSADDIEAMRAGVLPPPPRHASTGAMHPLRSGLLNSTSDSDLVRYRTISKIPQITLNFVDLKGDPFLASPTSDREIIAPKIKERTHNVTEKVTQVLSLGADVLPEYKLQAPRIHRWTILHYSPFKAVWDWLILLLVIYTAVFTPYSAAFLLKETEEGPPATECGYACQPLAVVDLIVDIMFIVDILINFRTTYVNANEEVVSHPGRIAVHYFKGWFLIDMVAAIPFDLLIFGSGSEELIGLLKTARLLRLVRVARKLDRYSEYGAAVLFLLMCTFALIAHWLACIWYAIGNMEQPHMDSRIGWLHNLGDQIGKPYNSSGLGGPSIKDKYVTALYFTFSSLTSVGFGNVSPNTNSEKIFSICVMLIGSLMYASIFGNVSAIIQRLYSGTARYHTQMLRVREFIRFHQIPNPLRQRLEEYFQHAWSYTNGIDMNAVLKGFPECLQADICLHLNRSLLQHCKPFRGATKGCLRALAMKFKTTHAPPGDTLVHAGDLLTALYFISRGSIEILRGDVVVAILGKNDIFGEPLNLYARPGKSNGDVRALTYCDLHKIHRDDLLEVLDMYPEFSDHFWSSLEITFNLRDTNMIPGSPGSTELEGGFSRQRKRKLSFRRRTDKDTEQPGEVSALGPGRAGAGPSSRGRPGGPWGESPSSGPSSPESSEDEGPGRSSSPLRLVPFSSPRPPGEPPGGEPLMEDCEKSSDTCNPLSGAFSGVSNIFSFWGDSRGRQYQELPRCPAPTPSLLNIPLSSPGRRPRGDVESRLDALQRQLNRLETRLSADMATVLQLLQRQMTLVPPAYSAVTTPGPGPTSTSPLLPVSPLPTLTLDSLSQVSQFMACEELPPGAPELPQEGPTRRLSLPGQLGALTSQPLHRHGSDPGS
row,SMILES,"hERG current change (%, negative = inhibition) at 1uM [%]"
1,Cc1ccc(C)c(S(=O)(=O)N2CCN(C(=O)c3cnccn3)CC2)c1,-2.69
2,CCOCCCNC(=O)C(NC(=O)c1ccccc1O)c1ccccc1 (stereo not drawn),13
3,Cc1ccccc1C(C(=O)NC1CCCCC1)N(C(=O)c1ccccn1)c1cccnc1 (stereo not drawn),-4.53
4,O=C(NCC(=O)N1CCN(c2ccccc2O)CC1)c1ccc(Br)o1,13.8
5,COc1ccc(Cc2nnc(Nc3ccccc3OC)[nH]c2=O)cc1,14.2
6,CN(C)c1ccc(CNC(=O)c2cc(S(=O)(=O)N3CCOCC3)cn2C)cc1,4.82
7,O=C(CCn1cnc(-c2ccccc2)c1-c1ccccc1)N/N=C/c1ccc(O)cc1,9.95
8,CC(=O)NNC(=O)c1sc(=S)n2c1[nH]c(=O)c1sccc12,13.5
9,CC1CC(=O)Nc2ccccc2N1C(=O)CN1CCN(C=O)CC1 (stereo not drawn),11.7
10,CCN(CCn1cccn1)C(=O)CC1C(=O)NCCN1Cc1ccc(F)c(F)c1 (stereo not drawn),2.62
11,O=C(CSc1ccc(F)cc1)NCCc1ccc(Cl)cc1,14.3
12,CC(C)CCNC(=O)C1(O)c2ccccc2NC(=O)N1c1ccc(Cl)cc1 (stereo not drawn),17.3
13,N#Cc1c(-c2cccs2)cc(C2CC2)nc1SCC(N)=O,1.77
14,COc1ccccc1NC(=O)C(C/C=C(/C)Cl)C(C)=O (stereo not drawn),4.54
15,CC1Cc2ccccc2N1c1ncnc2nc[nH]c12 (stereo not drawn),3.01
16,Cc1cc(C)c2cc(C#N)c(N3CCCN(S(=O)(=O)c4ccccc4)CC3)nc2c1,8.61
17,Cc1nc(Cl)sc1C(=O)Nc1cccc(Cl)c1C,0.96
18,CN(Cc1ccccc1)C(=O)c1ccccc1Br,6.97
19,COc1ccc2nc3ccccc3nc2c1N,11.8

row,SMILES,"hERG current change (%, negative = inhibition) at 1uM [%]"
1,CCOc1cc(/C=N/NC(=S)Nc2ccccc2C(F)(F)F)ccc1OCC(=O)N1CCOCC1,15.5
2,Cc1ccc(S(=O)(=O)NCc2ccc(C(=O)N3CCCC3)cc2)cc1,5.98
3,CC1(C)Cc2c(cnn2-c2cccc(F)c2)C(NC(=O)CCN2CCCC2=O)C1 (stereo not drawn),0.533
4,O=C(c1ccc(S(=O)(=O)N2CCCCC2)cc1)N1CCN=C1SCc1cccnc1,2.7
5,O=C(NC(=S)NNC(=O)c1ccco1)c1ccc(Br)cc1,15.8
6,CC(=O)N(Cc1cc2cc(C)ccc2[nH]c1=O)c1cccc(C)c1C,18.5
7,COc1cc(-c2ccc(=O)[nH]n2)ccc1OC(F)F,0.0767
8,CC(C)c1nnc(SCC(=O)N2CCN(C(=O)c3ccco3)CC2)n1N,11
9,Cc1ccc(NC(=O)/C(C#N)=C/c2cn(CC(=O)NCc3ccco3)c3ccccc23)cc1C,9.74
10,N#Cc1c(-c2ccc(Cl)cc2)c2c([nH]c1=S)CCCC2,11.5
11,CCCCCCCN1C2=NCCCN2c2ccccc21.Cl,-21.6
12,CN(CC(=O)Nc1cccc(F)c1)C(=O)CCc1nc2ccccc2c(=O)[nH]1,5.68
13,COc1ccc([N+](=O)[O-])cc1NS(=O)(=O)c1ccc(C(=O)N2CCCC2)cc1,-3.99
14,Cc1c(C(=O)N2CCC3(CC2)OCCO3)oc2ccc(S(=O)(=O)N3CCCCC3)cc12,20.6
15,O=[N+]([O-])c1cc(CN2CCCC2)ccc1Sc1ccc(Cl)cc1,-3.02
16,CC1CCCCC1NC(=O)NC(=O)CCl.Cl (stereo not drawn),1.4
17,CCCSc1nc2c(cnn2-c2ccc(F)cc2)c(=O)[nH]1,9.55
18,CCOc1ccc(C2=Nn3c(nnc3-c3ccccc3OC)SC2)cc1,-11.7
19,COc1ccc(OC)c(-c2cn(S(=O)(=O)c3ccccc3)nc2N)c1,-2.5

row,SMILES,"hERG current change (%, negative = inhibition) at 1uM [%]"
1,Cn1c2c(c(=O)n(C)c1=O)C(c1ccc(C(F)(F)F)cc1)CC(=O)N2 (stereo not drawn),11.4
2,COC(=O)/C=C1\C(=O)N(c2nc3ccc(OC)cc3s2)C(=S)N1c1ccc(F)cc1,9.1
3,CN(C)CCCNC(=O)C(=O)NCC1OCCN1S(=O)(=O)c1cccs1 (stereo not drawn),11.9
4,O=C(NC1CCCc2ccccc21)C1CCN(S(=O)(=O)c2ccccc2F)CC1 (stereo not drawn),5.2
5,CCc1cc2c(SCC(=O)NCC3CCCO3)ncnc2s1 (stereo not drawn),9.31
6,CC(C)C(=O)Nc1cccc(NC(=S)NC(=O)c2ccc(Cl)cc2)c1,-2.36
7,N#C/C(=C\c1ccc(F)c(F)c1)C(=O)NC1CCCCC1,2.36
8,O=C(CC(=O)Nc1ccc(F)cc1F)Nc1ccc(F)cc1F,14.4
9,CCOc1ccc(NC(=O)[C@@H]2CCC(=O)N2C2OC(=O)c3ccccc32)cc1 (stereo partly drawn),7.07
10,COc1ccc(C)cc1NC(=O)CSc1nnc(CC(=O)Nc2ccccc2C)n1C,-8.28
11,CCCC(c1nnnn1CC(=O)OCC)N(Cc1cc2c(C)cc(C)cc2[nH]c1=O)C1CCCC1 (stereo not drawn),13.8
12,CCOc1ccccc1C1C(C#N)=C(N)Oc2n[nH]c(CC)c21 (stereo not drawn),-0.983
13,O=C(Nc1ncc2c(n1)CC(c1ccc(Cl)cc1)CC2=O)c1ccco1 (stereo not drawn),-19.9
14,Cc1cc(C)c(C(=O)CSc2nnc(N)s2)cc1C,6.02
15,CC(=O)c1cccc(NC(=O)NC2CCCCCCC2)c1,10.6
16,O=C(Nc1cccc(NC(=O)c2ccc(-c3ccc(Br)cc3)o2)c1)c1ccco1,15.8
17,CSc1ccc(CN2CCN(Cc3ccccc3)C(CCO)C2)cc1 (stereo not drawn),-12
18,O=C(COc1ccccc1Cl)Nc1nnc(S(=O)(=O)N2CCCC2)s1,1.51
19,O=C(CSc1nnc2ccccn12)N1CCc2ccccc2C1,7.78
